Out of some 39,000 compounds screened, about 220 (0.56%) showed activity. The list shows a part of the results.
These compounds were tested on Escherichia coli K-12 BW25113 (assay: relative growth (OD600 normalised to plate interquartile mean) (fraction); higher = less growth inhibition, active = 0.2 or less). Conditions: 50 µM; LB; incubation time: overnight (16-24 h).
With `C[C@@H]1CN([C@H](C)CO)C(=O)c2cc(NS(=O)(=O)c3ccc(Cl)cc3)ccc2O[C@@H]1CN(C)S(C)(=O)=O` the relative growth was inactive: 0.977.
`COc1cccc(C#Cc2ccc3c(c2)O[C@@H](CN(C)C(C)=O)[C@H](C)CN([C@H](C)CO)S3(=O)=O)c1` was tested, and the relative growth was inactive: 1.
In the case of `CN1C(=O)c2cc(NC(=O)Cc3cccs3)ccc2OC[C@H]2O[C@H](CC(=O)NCc3ccc(-c4ccccc4)cc3)CC[C@@H]21`, the relative growth is reported as inactive: 1.02.
With `C[C@@H]1O[C@@H](O[C@@H]2[C@@H](O)[C@H](OCCc3ccc(O)c(O)c3)O[C@H](CO)[C@H]2O)[C@H](O)[C@H](O)[C@H]1O` the relative growth was inactive: 1.02.
For `Cc1noc(C)c1NC(=O)N(C)C[C@@H]1Oc2ccc(NC(=O)NC(C)C)cc2CC(=O)N([C@@H](C)CO)C[C@H]1C`, the relative growth was inactive: 1.
With `Cc1cccc(NC(=O)Nc2ccc3c(c2)C(=O)N(C)[C@@H]2CC[C@H](CC(=O)NCc4ccccc4Cl)O[C@H]2CO3)c1` the relative growth was inactive: 1.
In the case of `CC1(C)CC(Nc2ccc(Nc3ccccc3)cc2)CC(C)(C)N1`, the relative growth is reported as inactive: 1.02.
For `Cc1ccc(S(=O)(=O)N(C)C[C@@H]2OCCCC[C@@H](C)Oc3ccc(NC(=O)NC4CCCCC4)cc3C(=O)N([C@H](C)CO)C[C@@H]2C)cc1`, the relative growth was inactive: 1.
In the case of `COc1ccc(S(=O)(=O)Nc2ccc3c(c2)C(=O)N([C@@H](C)CO)C[C@@H](C)[C@@H](CN(C)S(C)(=O)=O)O3)cc1`, the relative growth is reported as inactive: 1.
`Cc1noc(C)c1NC(=O)N(C)C[C@H]1OCCCC[C@@H](C)Oc2ccc(NS(=O)(=O)c3ccc(Cl)cc3)cc2C(=O)N([C@@H](C)CO)C[C@@H]1C` was tested, and the relative growth was inactive: 0.971.
`C[C@@H]1CN([C@@H](C)CO)C(=O)c2cc(NC(=O)Nc3cccc4ccccc34)ccc2O[C@H]1CN(C)Cc1ccncc1` was tested, and the relative growth was inactive: 0.998.
`C[C@@H]1CN([C@H](C)CO)C(=O)c2cc(N(C)C)ccc2O[C@@H](C)CCCCO[C@H]1CN(C)S(C)(=O)=O` was tested, and the relative growth was inactive: 0.968.
`C[C@@H]1CN([C@H](C)CO)C(=O)c2cc(Br)cnc2O[C@@H]1CN(C)Cc1ccc2c(c1)OCO2` was tested, and the relative growth was inactive: 1.
For `COc1ccc(C#Cc2ccc3c(c2)[C@H]2[C@H](CCN2C(=O)Nc2ccc(C(F)(F)F)cc2)[C@H](CO)N3C)cc1`, the relative growth was inactive: 1.01.
For `N=C(NO)C(=O)Nc1ccccc1`, the relative growth was inactive: 0.997.
`O=C(C[C@H]1C=C[C@@H](NC(=O)C2CC2)[C@H](CO)O1)NCCCN1CCOCC1` was tested, and the relative growth was inactive: 0.991.
With `O=S1(=O)C[C@H](NCc2cccnc2)[C@@H](O)C1` the relative growth was inactive: 1.
`COc1cccc(-c2cnc3c(c2)C(=O)N([C@H](C)CO)C[C@H](C)[C@H](CN(C)S(=O)(=O)c2cccs2)O3)c1` was tested, and the relative growth was inactive: 1.

Source: the supplement of paper PMC9446081
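Also: static incubation at 37 °C against the wild-type strain, values averaged over two biological replicates.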
